# PubChem BioAssay (NCATS)
# Where “and” joins values, the source holds several entries; their conditions need not be identical. Equal entries are not always repeated. This list was built around the results that the source calls inconclusive (neither active nor inactive); the mix of calls is not that of the screen. For some assays here: Potencies beside an inconclusive call are fits to weak or partial responses and may not hold up. Some structures have more than one record in an assay (separate samples or runs), and their calls can disagree. Calls of active or inactive are those of the source. Unless noted, the call rests on the fitted dose curve; in most records, active means well fitted curve in the direction sought with a large enough effect; inconclusive means small, poorly fitted or top-dose-only effect, or another doubt; inactive means no such curve, though single readings can be large; an effect the other way counts as inactive or inconclusive.
# Experiments:
# [1] = biological target: Cytochrome P450 2C9 (Homo sapiens) (UniProt P11712); assay: Cytochrome P450 family 2 subfamily C member 9 (CYP2C9) small molecule antagonists: luciferase biochemical (cell-free) qHTS assay (AID 1645842; active means well fitted curve in the direction sought with a large enough effect in the repeat runs; inconclusive means weak or mixed curves; inactive means no such curve, though single readings can be large; an effect the other way counts as inactive or inconclusive; further: nearly all actives have a fitted effect of over 55% in size)
# How it was run: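 Luminescence, after 20 min with luciferin detection reagent, reflected CYP2C9 turnover during a 1 h NADPH-driven reaction at 37C. Enzyme-substrate mix contained 0.4% bovine serum albumin and was preincubated with compound 10 min at room temperature.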
# [2] = Primary qHTS for inhibitors of nuclear receptor binding SET domain protein 2 (NSD2) in an isogenic RCH-ACV NSD2 p.E1099K mutant (9B) (AID 1645876); further: nearly all actives have a fitted effect of over 70% in size
# [3] = Primary qHTS for inhibitors of nuclear receptor binding SET domain protein 2 (NSD2) in an RCH-ACV wild type WT cells (2C) (AID 1645877); further: nearly all actives have a fitted effect of over 70% in size
# [4] = biological target: Papain (Carica papaya) (UniProt P00784); assay: Primary qHTS assay for inhibitors of the protease papain (AID 1645873);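 further: papain turnover of Z-FR-AMC read as the AMC fluorescence gain over 10 min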
# [5] = biological target: Glutathione peroxidase 1 (Homo sapiens) (UniProt P07203); assay: Primary qHTS Assay for Inhibitors of Recombinant Selenoprotein Glutathione Peroxidase 1 (GPX1) (AID 1845191); conditions: activity, negative = inhibition: at 48.8 µM (top of the series); further: nearly all actives have a fitted effect of over 65% in size
# How it was run: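 GR-coupled assay: compounds preincubated 30 min at room temperature with GPX1, then reaction started with CHP; final 10 nM GPX1, 1 mM GSH, 0.5 mM CHP, 0.5 mM NADPH, 100 nM GR, 0.01% BSA, pH 7.5 Tris buffer. NADPH fluorescence (340/450 nm) read at 0 and 15 min.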
# [6] = biological target: Luciferin 4-monooxygenase (Photinus pyralis) (UniProt P08659); assay: Primary firefly luciferase (FLuc) qHTS assay for identification of artifact compounds. (AID 1845220); further: nearly all actives have a fitted effect of over 60% in size
# How it was run: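 Titrated compounds were incubated 15 min at RT, protected from light, with luciferin and ATP at 10 uM; reaction started with 10 nM FLuc, luminescence imaged at 5 min, and concentration-response fitted by Hill equation.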
# [7] = biological target: Rap guanine nucleotide exchange factor 3 (Homo sapiens) (UniProt O95398); assay: Confirmatory qHTS for antagonist of cAMP-regulated guanine nucleotide exchange factor 3 (EPAC1) (AID 1645880); further: nearly all actives have a fitted effect of over 55% in size
# How it was run: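 Nucleotide exchange uses 100 nM EPAC1, 250 nM RAP1B-BODIPY-GDP and 50 uM GDP, with compounds in a concentration-titration series. After 5 min at room temperature, fluorescence (480 nm ex/540 nm em) is read every 5 min for 30 min. Data are normalized to control ATA and DMSO.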
# [8] = biological target: Metallo-beta-lactamase type 2 (Klebsiella pneumoniae) (UniProt C7C422); assay: qHTS to identify inhibitors of the New Delhi Metallo-beta-lactamase (NDM): assay validation screen against the NCATS LOPAC Collection (AID 1794843)
# How it was run: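 NDM-1 at 2 nM final in 50 mM HEPES pH 7.0 with 1 uM ZnSO4 and 0.01% Tween20 was preincubated with library compounds in DMSO. Nitrocefin (50 uM stock) was then added, and absorbance at 485 nm was read at the kinetic plateau.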
# [9] = biological target: Phospholipid hydroperoxide glutathione peroxidase GPX4 (Homo sapiens) (UniProt P36969); assay: Primary qHTS Assay for Inhibitors of Recombinant Selenoprotein Glutathione Peroxidase 4 (GPX4) (AID 1845192); conditions: activity change, negative = inhibition: at 50 µM (top of the series); further: nearly all actives have a fitted effect of over 65% in size
# How it was run: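 GR-coupled assay: recombinant GPX4 preincubated 30 min with compound at room temperature; final 200 nM GPX4, 1 mM GSH, 0.5 mM cumene hydroperoxide, 0.5 mM NADPH, 100 nM GR, 0.01% BSA, pH 7.5 Tris. NADPH fluorescence (340/450 nm) read at 0 and 15 min.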
# [10] = biological target: Rap guanine nucleotide exchange factor 4 (Homo sapiens) (UniProt Q8WZA2); assay: Confirmatory qHTS for antagonist of cAMP-regulated guanine nucleotide exchange factor 4 (EPAC2) (AID 1645885); further: nearly all actives have a fitted effect of over 25% in size
# [11] = biological target: Nuclear receptor subfamily 1 group I member 3 (Homo sapiens) (UniProt Q14994); assay: Primary qHTS for antagonist of constitutive androstane receptor (CAR) against the NCATS DSHEA and TCM libraries (AID 1794836)
# How it was run: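 HepG2-CYP2B6-hCAR cells, attached 5 h, given compounds plus CITCO agonist […], incubated 24 h at 37 C. Luciferase luminescence read, multiplexed with CellTiter-Fluor viability (Ex/Em 405/540 nm).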
# [12] = biological target: N-terminal Xaa-Pro-Lys N-methyltransferase 1 (Homo sapiens) (UniProt Q9BV86); assay: Confirmatory qHTS for Inhibitors of N-terminal methyltransferase 1 (NTMT1): MTaseGlo Assay (AID 1645874); further: nearly all actives have a fitted effect of over 65% in size
# How it was run: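 Luminescent MTase-Glo read-out of SAH. 125 nM NTMT1, 100 uM SAM, 1 uM SPKRIA substrate, 30 min RT reaction after 15 min compound preincubation. Normalized to no-enzyme and DMSO controls; Hill fit.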
# Potency means the concentration at half of the fitted maximal effect; tags describe the fitted curve by direction and shape.
# UniProt P07203, sequence (P07203 whole entry, looked up): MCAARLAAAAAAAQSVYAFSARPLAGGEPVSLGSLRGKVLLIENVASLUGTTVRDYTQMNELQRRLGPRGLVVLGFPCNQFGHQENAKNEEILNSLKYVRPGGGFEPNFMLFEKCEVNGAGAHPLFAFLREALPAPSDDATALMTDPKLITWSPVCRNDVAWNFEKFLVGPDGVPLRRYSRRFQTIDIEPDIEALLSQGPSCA
# UniProt P00784, sequence (P00784 whole entry, looked up): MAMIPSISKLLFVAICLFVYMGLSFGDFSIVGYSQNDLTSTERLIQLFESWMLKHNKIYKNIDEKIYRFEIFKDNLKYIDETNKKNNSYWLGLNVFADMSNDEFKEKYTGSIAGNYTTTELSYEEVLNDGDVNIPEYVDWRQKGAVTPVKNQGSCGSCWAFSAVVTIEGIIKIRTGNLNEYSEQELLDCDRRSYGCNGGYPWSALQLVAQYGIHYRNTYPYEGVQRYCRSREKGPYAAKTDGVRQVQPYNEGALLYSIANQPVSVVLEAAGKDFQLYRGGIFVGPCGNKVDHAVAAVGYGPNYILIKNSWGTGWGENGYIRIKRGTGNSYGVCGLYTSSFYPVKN
# UniProt P36969, sequence (P36969 whole entry, looked up): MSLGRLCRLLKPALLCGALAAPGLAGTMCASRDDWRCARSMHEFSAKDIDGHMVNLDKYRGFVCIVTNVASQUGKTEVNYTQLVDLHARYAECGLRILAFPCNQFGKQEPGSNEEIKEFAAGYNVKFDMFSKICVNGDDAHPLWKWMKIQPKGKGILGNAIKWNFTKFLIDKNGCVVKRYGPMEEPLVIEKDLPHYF
# UniProt O95398, sequence (O95398 whole entry, looked up): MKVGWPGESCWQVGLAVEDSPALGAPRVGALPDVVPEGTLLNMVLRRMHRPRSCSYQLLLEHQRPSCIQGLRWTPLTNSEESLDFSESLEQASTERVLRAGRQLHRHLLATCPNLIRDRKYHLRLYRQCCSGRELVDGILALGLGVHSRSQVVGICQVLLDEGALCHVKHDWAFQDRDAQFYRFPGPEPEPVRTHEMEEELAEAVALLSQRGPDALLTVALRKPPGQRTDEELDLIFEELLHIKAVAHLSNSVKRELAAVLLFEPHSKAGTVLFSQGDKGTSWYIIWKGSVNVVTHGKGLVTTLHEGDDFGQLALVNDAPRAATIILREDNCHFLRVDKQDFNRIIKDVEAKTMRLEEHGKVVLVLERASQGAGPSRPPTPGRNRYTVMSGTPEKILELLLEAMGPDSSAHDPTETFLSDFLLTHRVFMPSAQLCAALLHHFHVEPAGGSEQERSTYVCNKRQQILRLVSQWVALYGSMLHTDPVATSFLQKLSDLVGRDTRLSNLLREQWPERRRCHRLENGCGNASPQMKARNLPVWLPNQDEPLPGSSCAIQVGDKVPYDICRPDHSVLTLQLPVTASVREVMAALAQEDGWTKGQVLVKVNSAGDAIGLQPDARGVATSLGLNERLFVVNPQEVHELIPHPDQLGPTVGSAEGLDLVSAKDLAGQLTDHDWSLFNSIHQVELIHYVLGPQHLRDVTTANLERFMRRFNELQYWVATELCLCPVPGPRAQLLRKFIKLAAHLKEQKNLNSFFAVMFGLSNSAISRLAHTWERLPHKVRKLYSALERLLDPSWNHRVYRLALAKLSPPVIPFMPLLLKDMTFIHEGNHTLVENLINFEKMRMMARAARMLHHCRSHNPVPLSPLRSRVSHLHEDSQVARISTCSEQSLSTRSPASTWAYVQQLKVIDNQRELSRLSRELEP
# UniProt P11712, sequence (P11712 whole entry, looked up): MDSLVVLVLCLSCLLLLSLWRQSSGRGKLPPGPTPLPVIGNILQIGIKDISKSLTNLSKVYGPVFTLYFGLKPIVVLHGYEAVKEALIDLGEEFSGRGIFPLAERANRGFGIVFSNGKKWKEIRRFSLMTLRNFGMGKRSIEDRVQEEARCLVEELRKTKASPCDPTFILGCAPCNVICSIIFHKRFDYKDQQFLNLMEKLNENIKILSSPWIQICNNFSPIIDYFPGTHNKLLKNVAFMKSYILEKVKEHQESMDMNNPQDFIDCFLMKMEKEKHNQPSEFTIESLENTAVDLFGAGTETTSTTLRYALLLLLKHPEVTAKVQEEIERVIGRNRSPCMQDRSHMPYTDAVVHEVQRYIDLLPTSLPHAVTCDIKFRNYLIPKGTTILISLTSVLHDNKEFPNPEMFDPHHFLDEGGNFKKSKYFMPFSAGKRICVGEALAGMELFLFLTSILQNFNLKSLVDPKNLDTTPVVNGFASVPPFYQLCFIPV
# UniProt C7C422, sequence (C7C422 whole entry, looked up): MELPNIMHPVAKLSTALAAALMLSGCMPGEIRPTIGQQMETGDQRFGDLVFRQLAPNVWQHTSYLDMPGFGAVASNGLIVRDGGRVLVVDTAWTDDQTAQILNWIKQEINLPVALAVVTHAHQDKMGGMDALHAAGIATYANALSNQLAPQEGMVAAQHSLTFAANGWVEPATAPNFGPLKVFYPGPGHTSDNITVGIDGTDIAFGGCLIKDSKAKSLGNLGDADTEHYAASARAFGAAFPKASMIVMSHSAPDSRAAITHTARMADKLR
# UniProt Q9BV86, sequence (Q9BV86 whole entry, looked up): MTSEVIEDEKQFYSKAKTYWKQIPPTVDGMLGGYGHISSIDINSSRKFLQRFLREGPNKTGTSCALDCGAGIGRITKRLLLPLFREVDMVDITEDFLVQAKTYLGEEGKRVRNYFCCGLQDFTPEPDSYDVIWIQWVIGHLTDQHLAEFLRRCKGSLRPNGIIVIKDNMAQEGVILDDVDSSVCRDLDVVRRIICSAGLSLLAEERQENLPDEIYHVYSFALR
# UniProt Q14994, sequence (Q14994 whole entry, looked up): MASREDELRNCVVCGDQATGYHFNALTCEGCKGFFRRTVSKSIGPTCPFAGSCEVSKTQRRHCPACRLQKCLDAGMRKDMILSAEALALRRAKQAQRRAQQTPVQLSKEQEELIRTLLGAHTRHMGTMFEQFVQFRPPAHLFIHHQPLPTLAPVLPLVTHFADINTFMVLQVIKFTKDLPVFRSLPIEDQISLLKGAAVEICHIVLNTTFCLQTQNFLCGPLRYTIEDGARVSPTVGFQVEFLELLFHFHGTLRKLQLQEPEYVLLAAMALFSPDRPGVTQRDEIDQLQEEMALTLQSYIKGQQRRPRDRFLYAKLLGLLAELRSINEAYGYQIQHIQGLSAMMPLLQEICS
# UniProt Q8WZA2, sequence (Q8WZA2 whole entry, looked up): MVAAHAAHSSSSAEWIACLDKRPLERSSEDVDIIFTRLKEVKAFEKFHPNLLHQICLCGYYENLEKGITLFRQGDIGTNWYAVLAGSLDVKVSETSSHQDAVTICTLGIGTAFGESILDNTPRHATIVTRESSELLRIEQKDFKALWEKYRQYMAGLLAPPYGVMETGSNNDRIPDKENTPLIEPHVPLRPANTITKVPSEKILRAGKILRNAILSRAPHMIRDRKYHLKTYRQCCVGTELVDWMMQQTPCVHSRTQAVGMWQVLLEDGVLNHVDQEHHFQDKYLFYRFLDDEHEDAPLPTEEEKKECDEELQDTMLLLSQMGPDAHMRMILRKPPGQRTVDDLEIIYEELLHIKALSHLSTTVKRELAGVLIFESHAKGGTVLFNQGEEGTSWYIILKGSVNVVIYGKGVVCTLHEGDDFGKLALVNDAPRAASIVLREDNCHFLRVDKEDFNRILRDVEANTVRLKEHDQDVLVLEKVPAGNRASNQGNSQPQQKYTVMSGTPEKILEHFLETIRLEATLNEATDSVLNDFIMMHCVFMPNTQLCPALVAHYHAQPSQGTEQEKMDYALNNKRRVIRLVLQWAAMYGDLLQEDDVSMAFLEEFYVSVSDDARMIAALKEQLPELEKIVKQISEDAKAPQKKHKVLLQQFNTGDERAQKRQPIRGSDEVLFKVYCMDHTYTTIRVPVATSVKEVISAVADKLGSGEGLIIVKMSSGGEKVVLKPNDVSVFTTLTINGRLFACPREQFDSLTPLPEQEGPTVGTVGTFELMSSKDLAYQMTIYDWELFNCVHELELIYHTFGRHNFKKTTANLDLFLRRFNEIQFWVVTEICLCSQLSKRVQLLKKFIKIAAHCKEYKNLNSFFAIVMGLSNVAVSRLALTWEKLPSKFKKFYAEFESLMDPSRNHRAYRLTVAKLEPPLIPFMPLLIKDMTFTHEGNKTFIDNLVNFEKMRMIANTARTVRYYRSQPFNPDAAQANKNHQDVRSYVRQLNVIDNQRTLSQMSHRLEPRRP
smiles,measurement,setting,value
C#C[C@]1(O)CC[C@H]2[C@@H]3CCc4cc(O)ccc4[C@H]3CC[C@@]21C,Potency,[1],"inconclusive: 3.89 µM [inhibitor, single point]"
same,Potency,[2],"inconclusive: 33.5 µM [inhibitor, single point]"
Cc1ccc(C(=O)c2ccc(CC(=O)O)n2C)cc1,Potency,[1],inactive and active: 15.1 µM
Cc1cccc(C)c1NC(=O)c1ccccc1C(=O)O,Potency,[1],inactive
COc1ccc(C=CC(=O)Nc2ccccc2C(=O)O)cc1OC,Potency,[1],active: 16.9 µM
OC1(c2ccc(Cl)cc2)CCNCC1,Potency,[1],"inconclusive: 12.3 µM [inhibitor, partial curve]"
Cc1nc2ccccc2n1Cc1ccc(Cl)cc1,Potency,[1],active: 11 µM
same,Potency,[2],"inconclusive: 1.68 µM [inhibitor, partial curve]"
same,Potency,[3],"inconclusive: 1.5 µM [inhibitor, full curve]"
CNC(=O)Oc1ccc2c(c1)[C@]1(C)CCN(C)[C@@H]1N2C,Potency,[1],inactive
O=C(CCN1CCN(C(=O)OCc2cc(Cl)cc(Cl)c2)CC1)c1ccc2[nH]c(=O)oc2c1,Potency,[1],active: 7.56 µM
same,Potency,[2],"inconclusive: 16.3 µM [inhibitor, partial curve]"
O=C1Cc2cc(CCN3CCN(c4nsc5ccccc45)CC3)c(Cl)cc2N1,Potency,[1],"inconclusive: 12.3 µM [inhibitor, partial curve]"
same,Potency,[2],"inconclusive: 29 µM [inhibitor, single point]"
same,Potency,[3],"inconclusive: 29.9 µM [inhibitor, single point]"
O=C(O)c1cccnc1Nc1cccc(C(F)(F)F)c1,Potency,[1],"inconclusive: 34.7 µM [inhibitor, partial curve, poor fit]"
same,Potency,[4],"inconclusive: 8.91 µM [inhibitor, single point]"
same,Potency,[2],"inconclusive: 29.9 µM [inhibitor, single point]"
CC[C@H](C)[C@H](N)C(=O)O,Potency,[1],inactive
CCOCCOC(=O)/C=C/c1ccc(OC)cc1,Potency,[1],"inconclusive: 17.4 µM [inhibitor, partial curve]"
same,Potency,[2],"inconclusive: 33.5 µM [inhibitor, single point]"
same,Potency,[3],"inconclusive: 33.5 µM [inhibitor, single point]"
COc1ccc(-c2cc(=S)ss2)cc1,Potency,[5],active: 11.4 µM
Cc1cc2c(s1)Nc1ccccc1N=C2N1CCN(C)CC1,Potency,[5],"active: 16.1 µM and inconclusive: 25.5 µM [inhibitor, single point]"
Cc1ccc2c(n1)Oc1ccc(C(C)C(=O)OCC(=O)N(C)C)cc1C2 (stereo not drawn),Potency,[6],"inconclusive: 26.9 µM [inhibitor, single point]"
CC(=O)SCC(CC(=O)c1ccc(C)cc1)C(=O)O (stereo not drawn),Potency,[6],"inconclusive: 26.9 µM [inhibitor, partial curve, poor fit]"
O=c1onc2cnc3ccccc3n12,Potency,[4],"inconclusive: 35.5 µM [inhibitor, single point]"
Nc1nc(Cl)nc2c1ncn2[C@@H]1O[C@H](COP(=O)(O)OP(=O)(O)OP(=O)(O)O)[C@@H](O)[C@H]1O,Potency,[4],inactive
N#C/C(=C\c1ccc(O)c(O)c1)C(=O)Nc1ccccc1,Potency,[4],"inconclusive: 14.1 µM [inhibitor, partial curve, poor fit]"
same,Potency,[7],"inconclusive: 3.52 µM [inhibitor, full curve]"
Nc1ccc(-c2ccc3ccccc3n2)cc1,Potency,[4],"inconclusive: 28.2 µM [inhibitor, single point]"
NC(CO)C(=O)NNCc1ccc(O)c(O)c1O (stereo not drawn),Potency,[1],"inconclusive: 38.9 µM [inhibitor, single point]"
same,Potency,[3],"inconclusive: 23.7 µM [inhibitor, single point]"
same,Potency,[5],inactive
CCn1cc(C(=O)O)c(=O)c2cc(F)c(N3CCNC(C)C3)c(F)c21 (stereo not drawn),Potency,[4],active: 15.8 µM
Cc1c(OCC(F)(F)F)ccnc1CS(=O)c1nc2ccccc2[nH]1 (stereo not drawn),Potency,[4],"inconclusive: 15.8 µM [inhibitor, partial curve]"
same,Potency,[2],"inconclusive: 21.1 µM [inhibitor, single point]"
same,Potency,[3],"inconclusive: 20.9 µM [inhibitor, single point]"
same,Potency,[8],"inconclusive: 1.41 µM [inhibitor, full curve, poor fit]"
same,Potency,[9],"active: 4.53 µM and inconclusive: 31.6 µM [inhibitor, single point]"
CN1CCc2cccc3c2C1Cc1ccc(O)c(O)c1-3 (stereo not drawn),Potency,[4],"inconclusive: 2.82 µM [inhibitor, full curve, poor fit]"
CN1C2CCC1CC(OC(=O)C(O)c1ccccc1)C2 (stereo not drawn),Potency,[4],inactive
Nc1c(S(=O)(=O)O)cc(Nc2ccc(Nc3nc(Cl)nc(Nc4ccc(S(=O)(=O)O)cc4)n3)c(S(=O)(=O)O)c2)c2c1C(=O)c1ccccc1C2=O,Potency,[4],active: 1.78 µM
same,Potency,[7],active: 9.93 µM
same,Potency,[8],active: 0.631 µM
same,Potency,[9],"inconclusive: 25.1 µM [inhibitor, single point]"
O=c1[nH]c2ccccc2n1CCCN1CCN(C(c2ccccc2)c2ccccc2)CC1,Potency,[1],"inconclusive: 27.5 µM [inhibitor, single point]"
same,Potency,[3],active: 23.7 µM
O=c1cc(N2CCOCC2)oc2c(-c3ccccc3)cccc12,Potency,[4],"inconclusive: 25.1 µM [inhibitor, single point]"
same,Potency,[2],"inconclusive: 7.08 µM [inhibitor, full curve]"
same,Potency,[3],"inconclusive: 7.94 µM [inhibitor, full curve]"
O=C(O)c1cc(=O)c2c(Cl)cc(Cl)cc2[nH]1,Potency,[4],inactive
CNC1CCCN(c2c(F)cc3c(=O)c(C(=O)O)cn(C4CC4)c3c2OC)C1 (stereo not drawn),Potency,[1],inactive
same,Potency,[5],"inconclusive: 20.5 µM [inhibitor, single point]"
O=[N+]([O-])c1ccc2c(c1)S(=O)(=O)C=C2,Potency,[4],"inconclusive: 25.1 µM [inhibitor, partial curve, poor fit]"
CC(C)(C)NC[C@H](O)COc1nsnc1N1CCOCC1,Potency,[4],inactive
same,Potency,[3],inactive
Nc1nc2ccc(OC(F)(F)F)cc2s1,Potency,[4],"inconclusive: 4.47 µM [inhibitor, single point]"
same,Potency,[10],"inconclusive: 44.1 µM [inhibitor, single point]"
O=C1NC(=O)C(c2ccccc2[N+](=O)[O-])=C1Nc1ccc(O)c(Cl)c1,Potency,[4],"inconclusive: 35.5 µM [inhibitor, single point]"
same,Potency,[2],"inconclusive: 29.1 µM [inhibitor, single point]"
same,Potency,[3],"inconclusive: 29.1 µM [inhibitor, single point]"
same,Potency,[5],"inconclusive: 22.4 µM [inhibitor, single point]"
Oc1cc(O)cc(/C=C/c2ccc(O)c(O)c2)c1,Potency,[4],active: 22.4 µM
same,Potency,[2],"inconclusive: 29.5 µM [inhibitor, single point]"
same,Potency,[3],"inconclusive: 37.2 µM [inhibitor, single point]"
COc1cc2nc(N3CCCN(C)CC3)nc(NC3CCN(Cc4ccccc4)CC3)c2cc1OC,Potency,[4],active: 25.1 µM
same,Potency,[2],active: 4.17 µM
same,Potency,[3],active: 2.63 µM
same,Potency,[5],"inconclusive: 35.5 µM [inhibitor, single point]"
same,Potency,[9],"inconclusive: 20 µM [inhibitor, partial curve, poor fit] and inconclusive: 20.2 µM [inhibitor, single point]"
Cc1cc(O)c2c(c1)C(=O)c1cc(O)cc(O)c1C2=O,Potency,[4],inactive
same,Potency,[2],inactive
same,Potency,[3],inactive
same,Potency,[11],"inconclusive: 3.98 µM [inhibitor, full curve]"
Cc1cccc(/C=C/c2ccccc2)n1,Potency,[4],"inconclusive: 17.8 µM [inhibitor, partial curve, poor fit]"
same,Potency,[12],active: 27.4 µM
Oc1ccc2ccccc2c1SSc1c(O)ccc2ccccc12,Potency,[4],"inconclusive: 14.1 µM [inhibitor, partial curve]"
same,Potency,[3],"inconclusive: 33.2 µM [inhibitor, single point] and inconclusive: 16.4 µM [inhibitor, single point]"
same,Potency,[9],"inconclusive: 22.7 µM [inhibitor, single point]"
O[Si](CCCN1CCCCC1)(c1ccc(F)cc1)C1CCCCC1 (stereo not drawn),Potency,[4],inactive
c1ccc(C(NCCNC(c2ccccc2)c2ccccc2)c2ccccc2)cc1,Potency,[4],inactive
C#CC(C)(CC)OC(=O)c1ccccc1C(=O)O (stereo not drawn),Potency,[1],inactive
same,Potency,[9],inactive
Cc1[nH]c(=O)c(C#N)cc1-c1ccc2nccn2c1,Potency,[4],"inconclusive: 0.891 µM [inhibitor, full curve, poor fit]"
same,Potency,[2],inactive
Cc1cccc(C#Cc2ccccc2)n1,Potency,[4],"inconclusive: 31.6 µM [inhibitor, single point]"
COc1ccc(Cl)cc1C(=O)NCCc1ccc(S(=O)(=O)NC(=O)NC2CCCCC2)cc1,Potency,[4],"inconclusive: 1.58 µM [inhibitor, partial curve, poor fit]"
same,Potency,[2],"inconclusive: 18.8 µM [inhibitor, single point] and inactive"
same,Potency,[3],"inconclusive: 33.5 µM [inhibitor, single point] and inconclusive: 12.9 µM [inhibitor, partial curve]"
CN1CCN(C2=Nc3cc(Cl)ccc3Nc3ccccc32)CC1,Potency,[4],inactive
O=C1/C(=C/c2ccsc2)CC/C1=C\c1cccs1,Potency,[4],"inconclusive: 2.24 µM [inhibitor, partial curve, poor fit]"
N#C/C(=C\c1ccc(O)c(O)c1)C(=O)c1ccc(O)c(O)c1,Potency,[4],"inconclusive: 12.6 µM [inhibitor, partial curve]"
same,Potency,[7],active: 0.794 µM
C=CC(N)CCC(=O)O (stereo not drawn),Potency,[4],inactive
Cc1nn(-c2ccccc2)c(C)c1/C=N/N1CCN(Cc2ccccc2)CC1,Potency,[4],inactive
same,Potency,[2],"inconclusive: 23 µM [inhibitor, single point]"
same,Potency,[3],"inconclusive: 14.5 µM [inhibitor, partial curve, poor fit]"
